# Test results as given in paper PMC12136788.
# The list shows a part of the results.
# T1: UNK ZnF1-3 (human, UniProt Q9C0B0 31-174)
# T1 sequence: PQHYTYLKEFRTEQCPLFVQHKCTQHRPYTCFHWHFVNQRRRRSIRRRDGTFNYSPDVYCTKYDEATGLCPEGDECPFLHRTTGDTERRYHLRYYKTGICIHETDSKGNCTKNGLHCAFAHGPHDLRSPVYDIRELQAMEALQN
# B1: chr14:21833301:21833302:-_ENSG00000092201_ENST00000216297|hu_hu|motif|central (ssRNA)
# RNA: GGGAGUUCUACAGUCCGACGAUCAUUGAUGCUGAAAACCAUUCCUUUCUUCAGUUUGUAUUGAUUUUUGCUAUUGAUUACGGGGGAGCCUUCACGGAAUUCAAUUCCCAUCCCAAACCCUAGGUUUUUGGUAAUUUUGUUCAGCAACAGAGGAUUGAGCAUCA
# B2: chr4:110384322:110384323:+_ENSG00000138802_ENST00000265175|hu_hu|motif|central (ssRNA)
# RNA: GGGAGUUCUACAGUCCGACGAUCGUAUGGUUGGGAGGCACUCGUAUGCAAAUGGGAUGCUGACGAUGCAGCACCUUGGAAAGAUCCGGGAGUGGAUCCCACAAUAUGAGGGGCAGGAGGACCCCUGCUGUACAACUGCUGUGCCAACAGAGGAUUGAGCAUCA
# B3: chr12:96259795:96259796:+_ENSG00000139343_ENST00000266735|hu_mus|motif|central (ssRNA)
# RNA: GGGAGUUCUACAGUCCGACGAUCGAGGACAUUAUUACACCUUAUUAGAACUUCGCCCAGAUGUCCAGACAGCGCCCCAUCGGUGUACUCUUCUGUAUUUGCAAGCUGCAUGUUCAUGUAGCCAUCCACGGAGACCAGGUAGCCCAACAGAGGAUUGAGCAUCA
# B4: chr1:163117127:163117128:-_ENSG00000143248_ENST00000313961|hu_mus|hu_hu_hu_mus_False|68_68 (ssRNA)
# RNA: GGGAGUUCUACAGUCCGACGAUCUGCUACAAAGGAUGUAACUCAACUCACAGGGCAACUUUUGGAAGCCUGGCUAAAUGACUACUUGAUUAGCUCCUUAUAAAAUUCAGAGCGCACAAAGCGGGGCAGAGAAUCCUUCUCCAUCAACAGAGGAUUGAGCAUCA
# B5: chrX:20248820:20248821:+_ENSMUSG00000001924_ENSMUST00000001989|mus_mus|mus_mus_mus_hu_True|58_108 (ssRNA)
# RNA: GGGAGUUCUACAGUCCGACGAUCGGCAAAGUCAGUCACCACAAAGUCAGGUUCUGCCAGUGAGGCCACCAAGGAUUUAAAACUAAUCUUCUUAGGUACUUUGACCUGACUGACGAUGCCUCCACGGAUGUAGUCGGAGAAGUUCAACAGAGGAUUGAGCAUCA
# B6: chr1:168153195:168153196:+_ENSG00000143155_ENST00000367833|hu_hu|FALSE|FALSE (ssRNA)
# RNA: GGGAGUUCUACAGUCCGACGAUCUAAAACGUUGUCUCCAAACAUCAUUUCAGGGAGAGAUGGCAUAUGUAAUUCAUCGGCUAAUUUCUCCACAUCCGCCGACUUCAUGAUGUGGGUCUUGGACGCCGUCAGCUUCCAGGGCCCCAACAGAGGAUUGAGCAUCA
# B7: 73116076_73116196_2691_3pUTR_ENSG00000054965_ENST00000064778|human|control|control (ssRNA)
# RNA: GGGAGUUCUACAGUCCGACGAUCCUCUUCUCCCAGAUGAGCCUGUCUCCUGGGCCUCAUCCUCAUUCUCCUCUCCUGAUGACUCCCACUGUCUUCCUCCUCUUCCUCUCCUCUCGGGAUGAGGGGCUACUGUCCUAAAAGCAUCAACAGAGGAUUGAGCAUCA
# B8: chr14:89305849:89305850:+_ENSG00000165533_ENST00000346301|hu_mus|FALSE|FALSE (ssRNA)
# RNA: GGGAGUUCUACAGUCCGACGAUCAGCAUUUUCAUCCAGGAUCAUUUCAGCAAUUCCUUCCUGGUCCACAUCAAUUUCAUCUAUGUACACCAUCUCUGUCAGCGCCCGUGCUUUCAAAAUCCAAGCCGCCUGAUCAUAAGGGGACAACAGAGGAUUGAGCAUCA
# B9: 102142660_102142780_3167_3pUTR_ENSMUSG00000027189_ENSMUST00000102573|mouse|control|control (ssRNA)
# RNA: GGGAGUUCUACAGUCCGACGAUCUGAUUACUGAGAAAGACAAGACAAGCUUCCAAACUGUCAAGUCUUUUCAAUCUUGUGAUAGUUUACACUCUUUCUACAGUGGCCCUUCUUUUAAAAUUUUGGCAGAACAGGAUAUCACUGCAACAGAGGAUUGAGCAUCA
# B10: chr16:56712917:56712918:-_ENSMUSG00000022757_ENSMUST00000065515|mus_mus|motif|central (ssRNA)
# RNA: GGGAGUUCUACAGUCCGACGAUCAUAAUCAGCUUCCCACUUAGGUCCAACUGUCCGUUCAUUGUGGAGUCCAGGAUGCUCGGUAUAUACAACUCUAGGGGAAAAAAACCCGCUUGCCGAGGCCGUCCACCUCAGCUGACCCGGCAACAGAGGAUUGAGCAUCA
# B11: chr4:45007048:45007049:-_ENSMUSG00000049657_ENSMUST00000055028|mus_mus|motif|central (ssRNA)
# RNA: GGGAGUUCUACAGUCCGACGAUCGCUCUGACUUGCACUGAAAUUACUCCCCCUGCUCUUGUUGAGAAAAUUGGAAAUACGGAAAGAGGUCUUAUGUUCUAGAUUAUUCGUGACUUCCAAGAUGUGGAUGUCCCCGACCCUGUCCAACAGAGGAUUGAGCAUCA
# B12: chr7:150775722:150775723:-_ENSG00000164896_ENST00000297532|hu_hu|FALSE|FALSE (ssRNA)
# RNA: GGGAGUUCUACAGUCCGACGAUCUUCCUGAACCACCAGGAAGUGGGCAAUGGCUUCCAGAAGCUGGGGCUCCCGCAACCGGUGCCGGGCCAGGUGCUGGGCCAGGAGCACCAUCACGUGGGGAGUCAGUUCCUCUGGCCUUGCCAACAGAGGAUUGAGCAUCA
# B13: chr3:71021771:71021772:-_ENSG00000114861_ENST00000475937|hu_hu|motif|central (ssRNA)
# RNA: GGGAGUUCUACAGUCCGACGAUCCACUGUCCAUACUGCCCCUUUAACGUUUUCUACUCGCACAAAACACUUGUGAAGACGGAGAUUAUGACGCACUGCAUUCUUCCACGUGGCCGCGUUGCGUCGGAAGUAAGCAAACAUUCGCAACAGAGGAUUGAGCAUCA
# B14: chr7:140404665:140404666:+_ENSG00000090266_ENST00000247866|hu_hu|hu_hu_hu_mus_False|88_98 (ssRNA)
# RNA: GGGAGUUCUACAGUCCGACGAUCUGCUCCUACUCGUAGGCUGAGUCUACACCUUCAGUCCUCGUCAUCAGGAGGGAUUCCCAGUUCUUCAUCUGUCCACUGUGAAGGAUCUGGAUAUGAAAAGUGACCCAGCACAGCAUCCGACAACAGAGGAUUGAGCAUCA
# B15: 79685907_79689965_1188_CDS_ENSG00000067715_ENST00000261205|human|control|control (ssRNA)
# RNA: GGGAGUUCUACAGUCCGACGAUCUUUUGUCUCAAAUUUCUUCUUCUUAUCAGGUAGCAGAAACACUUUCACGUAAGGAUCAGAUGUGCCCCCCAUGUCCAAGGCGGGCAGUUCGGCAGCCUGAAUGAUCCCUACCAGCAGCUGCAACAGAGGAUUGAGCAUCA
# B16: chr4:107939148:107939149:-_ENSMUSG00000034636_ENSMUST00000043616|mus_hu|FALSE|FALSE (ssRNA)
# RNA: GGGAGUUCUACAGUCCGACGAUCCAUCUGGUUGCCCCUAAAAAUACCCACAGUUCCAUCAUUCAAUAGACCAUGAAAAGCCAUGGUCCGAAGCAGUCGAUCAGCCACCUCCUGUGGGAAUACUCCAGGUUCCUGCAGACACAACAACAGAGGAUUGAGCAUCA
# B17: chr5:135496556:135496557:+_ENSG00000113658_ENST00000545279|hu_mus|FALSE|FALSE (ssRNA)
# RNA: GGGAGUUCUACAGUCCGACGAUCGUUCCUGAACUGAACCAGAAGGCUGUGUUGUGGAUUGAAUUCAUUGUGACGAGGCACUAAUACUGGAGGUAAGACUGGACUCUCCACUCUCUUAUAGUGGUAUGGAUUGAUACAAACUUCCAACAGAGGAUUGAGCAUCA
# B18: chr6:41757443:41757444:+_ENSG00000214736_ENST00000398881|hu_mus|hu_hu_hu_mus_False|8_78 (ssRNA)
# RNA: GGGAGUUCUACAGUCCGACGAUCGAACCGUGCAGAGGCAACAUCUCAGCCGACACUGUGGACUCAAGGGGCAGUGGGGGGGGGUUCAGGCAAGGAGAGGGAGUCAACUUCAGCUGCCACUCAGGUAGCUGCCAUCAGUCACAGCAACAGAGGAUUGAGCAUCA
# B19: 35327869_35327989_914_CDS_ENSG00000108094_ENST00000537177|human|control|control (ssRNA)
# RNA: GGGAGUUCUACAGUCCGACGAUCUAUAUUAUGACAUUCUGCAUGUAAAAACUGUAAGUGGUCUGCUACCAUUCGUUGUUGACAUUCAUGAAUCACCUUAGUAUAUGAACUUGGAUGUAGGUAUUUUCGACAUCGAAUUUCUUCCAACAGAGGAUUGAGCAUCA
# B20: chr17:38574076:38574077:-_ENSG00000131747_ENST00000423485|hu_hu|motif|central (ssRNA)
# RNA: GGGAGUUCUACAGUCCGACGAUCAAUGGUGACACUUCCAUGGUGACGGUCGUGAAGGGGCUCAAGAACCCUGAAAGCGACGGAACAGGCAGGACCCCACGAGACCACCCCCGACCAAGCCGCUUCUCCACAGACGCGCGUCGGCAACAGAGGAUUGAGCAUCA
# B21: 114354866_114354986_172_CDS_ENSG00000081019_ENST00000261441|human|control|control (ssRNA)
# RNA: GGGAGUUCUACAGUCCGACGAUCCACCGCUCCGACCUGCGCAGCCAUUUCACCCACAAACACACAUUUAAAUGGCCCGACCGCCCCCCCGUCCGCGCAUCGCGCAAGCGCCGCCCGCGCACUGCCCGCUGGGCAUUGGAGUCUCAACAGAGGAUUGAGCAUCA
# B22: chr4:25749455:25749456:-_ENSG00000091490_ENST00000264868|hu_hu|hu_hu_hu_mus_False|18_18 (ssRNA)
# RNA: GGGAGUUCUACAGUCCGACGAUCGCACUAUGACCUCUAGAAAAAUCCACAGGGGGAAAAAAUGUAAACCAAUGUACAAUGUUAUCGCCUUCCCUGUGUGUGGAGUGUUUGUCUCAAUAUUUCAAGGAGCUGCUGGAUUUGGGACAACAGAGGAUUGAGCAUCA
# Molecular target: T1, UNK ZnF1-3
# Assay: nsRBNS (natural sequence RNA bind-n-seq); RBNS binding buffer (assumed for nsRBNS): 25 mM Tris pH 7.5, 150 mM KCl, 3 mM MgCl2, 0.01% Triton X-100, 500 ug/ml BSA, 20 U/ml SUPERase-In, 4 C; UNK is unkempt and MSI1 is Musashi-1; names of the RNAs are library labels; protein concentration not given here; high values mean tight binding
row,Binder,binding signal [enrichment R]
1,B1,0.763
2,B2,0.937
3,B3,0.83
4,B4,1.15
5,B5,0.927
6,B6,0.513
7,B7,0.676
8,B8,1.96
9,B9,1.06
10,B10,0.998
11,B11,0.948
12,B12,0.841
13,B13,1.01
14,B14,0.799
15,B15,0.977
16,B16,1.5
17,B17,1.04
18,B18,2.1
19,B19,0.512
20,B20,0.885
21,B21,1.3
22,B22,1.37
